Source: PubChem BioAssay AID488969 (Vanderbilt High Throughput Screening Facility, 2010)
Over roughly 110,000 compounds, “z-score” has its median near -0.1; the highest 2% begin near 2. The list shows a part of the results. Active and inactive are the calls of the source.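 How the source made its calls: active means z-score in the third read window above 3 or below -3; inactive means the rest.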

What follows are molecules tested against Metabotropic glutamate receptor 8 (Rattus norvegicus) (UniProt P70579) (assay: mGluR8 Gi/Go-coupled signaling modulation – cell-based, rat, thallium flux, HTS, primary screen (AID 488969)). Conditions: HEK293 rat mGluR8, GIRK (G protein-gated inwardly rectifying potassium channel) thallium flux, FluoZin2; at 10 µM; stronger effect = higher value; submaximal glutamate (EC20) added with thallium.
UniProt P70579, sequence (P70579 whole entry, looked up): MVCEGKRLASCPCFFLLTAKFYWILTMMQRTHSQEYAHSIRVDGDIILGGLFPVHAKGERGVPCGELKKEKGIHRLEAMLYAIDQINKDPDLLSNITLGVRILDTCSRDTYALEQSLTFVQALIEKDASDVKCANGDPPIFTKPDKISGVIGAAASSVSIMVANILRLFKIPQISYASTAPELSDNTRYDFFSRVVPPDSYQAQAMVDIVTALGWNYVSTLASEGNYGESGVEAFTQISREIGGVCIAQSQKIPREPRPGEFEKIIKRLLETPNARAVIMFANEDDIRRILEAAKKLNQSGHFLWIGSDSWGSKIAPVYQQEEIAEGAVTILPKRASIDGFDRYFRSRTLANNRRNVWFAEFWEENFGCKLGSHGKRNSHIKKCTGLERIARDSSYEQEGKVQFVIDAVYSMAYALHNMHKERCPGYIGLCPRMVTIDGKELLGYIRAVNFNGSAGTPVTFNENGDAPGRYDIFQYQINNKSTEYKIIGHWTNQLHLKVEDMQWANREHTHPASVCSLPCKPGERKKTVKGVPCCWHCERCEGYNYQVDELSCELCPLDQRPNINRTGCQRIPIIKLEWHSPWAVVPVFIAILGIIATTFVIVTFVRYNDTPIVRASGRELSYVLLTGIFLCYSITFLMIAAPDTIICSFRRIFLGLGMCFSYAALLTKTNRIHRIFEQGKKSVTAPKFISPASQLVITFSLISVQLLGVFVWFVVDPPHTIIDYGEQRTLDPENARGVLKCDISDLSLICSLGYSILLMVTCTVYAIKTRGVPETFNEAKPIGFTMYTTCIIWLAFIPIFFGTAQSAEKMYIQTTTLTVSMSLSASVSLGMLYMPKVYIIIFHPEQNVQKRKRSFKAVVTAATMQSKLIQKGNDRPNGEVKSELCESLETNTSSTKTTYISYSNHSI

Row | SMILES | z-score
1 | Cc1c(C#N)c2ccccc2n1CCOc1ccccc1F | -1.31
2 | COC(=O)c1ccc(-n2nnnc2SCc2ccccc2OC)cc1 | 0.264
3 | O=C(Cc1ccc(Br)cc1)NCCc1ccc(Cl)cc1Cl | 0.0716
4 | CCOC(=O)c1nn(-c2cccc(OC)c2)c(-c2ccccc2)c1C(=O)c1ccccc1 | -0.23
5 | COc1cc2c(cc1OC)C1(Nc3c-2c(C)nn3-c2ccccc2)C(=O)Nc2ccccc21 (stereo not given) | -0.435
6 | CCN(CC)S(=O)(=O)c1cccc(NC(=O)C2SC(=Nc3ccc(C)cc3C)C(C(=O)NCC3CCCO3)=C2N)c1 (stereo not given) | 0.215
7 | CS(=O)(=O)N(CCc1ccccc1)CC(=O)N1CCc2ccccc2C1 | 0.339
8 | Cc1ccc([N+](=O)[O-])cc1NC(=O)C1CCN(S(C)(=O)=O)CC1 | 0.00186
9 | CCc1nnc2sc(-c3ccc(NC(=O)c4ccc5c(c4)OCCO5)cc3)nn12 | -0.64
10 | CC1CCCCN1C(=S)Nc1ccc(OC(F)F)cc1 (stereo not given) | 1.36
11 | Cc1ccc(NC(=O)CCc2nnc(SCC(=O)Nc3ccccc3C)n2C)cc1Cl | -0.13
12 | CC1CCCCN1Cc1cnc(Cl)s1 (stereo not given) | 0.0386
13 | Cc1nc(NC(=O)c2ccccc2)sc1-c1csc(Nc2ccc(Cl)cc2Cl)n1 | -0.0303
14 | N/C(=N\OC(=O)CSc1ccccc1)c1ccc([N+](=O)[O-])cc1 | -0.126
15 | COc1cc(C(=O)Nc2nnc(CC(=O)N3CCOCC3)s2)cc(OC)c1OC | -0.13
16 | Cc1ccc(NC(=O)c2ccc(S(=O)(=O)N3CCCCC3)cc2)cc1 | -0.0782
17 | CC(/C=N/NC(=O)c1cccc([N+](=O)[O-])c1)=C\c1ccccc1 | -0.192
18 | O=C(CCSc1nnc2ccc3ccccc3n12)Nc1ccc(F)cc1 | -0.726
19 | CC(C)n1cnc2cc(NCc3ccccn3)ccc21 | -0.0842
20 | CCN(CC)c1ccc(/C=N/NC(=S)NCc2ccc(OC)cc2)cc1 | 0.0355
21 | COc1cc(NC(=S)NCc2cccnc2)cc(OC)c1 | 0.297
22 | COc1cc(C(=O)NCc2nnc(SCC(=O)N3CCc4ccccc43)o2)cc(OC)c1OC | -0.104

Row | SMILES | z-score
23 | O=C(CN1C(=O)c2ccccc2S1(=O)=O)NCCSC1CCCCC1 | -0.364
24 | Cc1cccc(NC(=O)C2CCCC2)c1 | 0.277
25 | CCCC(=O)Nc1ccc(Cl)c(NC(=O)c2cccnc2)c1 | -0.639
26 | N=c1oc2ccc3ccccc3c2cc1-c1nnc2n1CCCCC2 | -0.238
27 | CO/N=C/C(C#N)c1ncc(C(F)(F)F)cc1Cl (stereo not given) | -0.37
28 | CCC1Oc2nc(SC)nnc2-c2ccccc2N1C(=O)c1ccccc1 (stereo not given) | 0.563
29 | CC1(C)Cc2c(cnn2-c2ccccc2)-c2c1c1ccccc1n2CC(O)CBr (stereo not given) | 0.0106
30 | O=C(Nc1ccc([N+](=O)[O-])cc1)c1cn(-c2ccccc2)nc1-c1cc2ccccc2o1 | -0.161
31 | COc1ccc(OCCn2cncn2)cc1 | 0.0157
32 | O=C(c1cccc(C(F)(F)F)c1)N1CCCCCC1 | -0.0358
33 | C/C(=N/OC(=O)c1c(F)cccc1F)c1nccs1 | -0.107
34 | Cc1nn2c(CN(C(=O)COc3ccccc3)c3ccccc3)nnc2c2ccccc12 | -0.835
35 | Nc1[nH]c(N=NC(=O)c2ccc(Cl)cc2)c2ccccc12 | -0.18
36 | CCn1cc(C(=O)N2CCCC2)c(=O)c2cc(S(=O)(=O)N(C)C)ccc21 | -0.0719
37 | CCCCOc1ccc(CONS(=O)(=O)c2ccc(NC(C)=O)cc2)cc1Cl | -0.176
38 | C=CCc1cc(/C=C2/NC(=S)NC2=O)cc(OC)c1O | 0.128
39 | Cc1ccc2nc(Cl)c(/C=N/NC(=O)[C@H]3C[C@@H]3c3ccccc3)cc2c1 | -0.252
40 | COc1cccc(-n2c(SCC(=O)NCc3ccco3)nnc2-c2c[nH]c3ccccc23)c1 | -0.561
41 | Cc1ccc(NC(=O)NNC(=O)Cn2nc(-c3ccccc3)c(-c3ccccc3)c(C#N)c2=O)cc1 | -0.36
42 | Cc1ccc(C(C)C)c(OCCn2c(=O)oc3ccccc32)c1 | 0.403
43 | CCOC(=O)c1c2c(n(C)c1C)C(=O)C(=O)c1ccc(Br)cc1-2 | -1.44
44 | O=C(CSc1nnc(-c2c[nH]c3ccccc23)n1CC1CCCO1)Nc1ccc2c(c1)OCCO2 (stereo not given) | -0.233

Row | SMILES | z-score
45 | CCc1nc(C)c(C#N)c2cc(OC)c(OC)cc12 | 0.0661
46 | COc1cccc(C(c2sc3nc(C)nn3c2O)N2CCC3(CC2)OCCO3)c1 (stereo not given) | 0.291
47 | O=C(c1nc2ccccc2s1)N1CCSCC1 | 0.0723
48 | CC(C)(C)C(=O)Nc1nc(C2CCCN2S(=O)(=O)c2ccc(Cl)cc2)cs1 (stereo not given) | -0.989
49 | Cc1nn(Cc2ccccc2Cl)c(C)c1NC(=O)c1cc(-c2ccc(F)cc2)on1 | -0.355
50 | CC1CC2=C(CC1/C=N/NC(N)=S)C(C)(C)CCC2 (stereo not given) | active: 3.44
51 | Nc1nnc(N2CCCCC2)s1 | -0.203
52 | Cc1c2cnn(CC(=O)N3CCN(c4ncccn4)CC3)c(=O)c2c(C)n1Cc1ccc(F)cc1 | -0.25
53 | O=C(Nc1ccc(N2CCOCC2)c(Cl)c1)c1cccc(F)c1 | -0.302
54 | Cc1nc2ncccn2c1-c1csc(Nc2ccccc2)n1 | -0.96
55 | CC(=O)Nc1ccc(S(=O)(=O)Nc2nc3ccccc3nc2N2CCCC2)cc1 | 0.894
56 | Cc1cc(NC(=O)CCC(=O)N(c2ccc(F)cc2)C2(C(=O)NC3CCCCC3)CCCC2)no1 | -0.858
57 | Clc1ccc2oc(-c3ccccc3)nc2c1 | -0.242
58 | CSc1nc(C)cc(NC(N)=O)n1 | -0.0464
59 | Cc1cc(C)c2[nH]c(=O)c(C(c3nnnn3Cc3ccc4c(c3)OCO4)N3CCC(C)CC3)cc2c1 (stereo not given) | -0.26
60 | C=CCOC(=O)C1=C(C)NC(SCC(=O)Nc2nccs2)=C(C#N)C1c1cccs1 (stereo not given) | -0.336
61 | O=C(NCCC1=CCCCC1)C(=O)c1c[nH]c2ccccc12 | -0.305
62 | CCOC(=O)N1CCN(Cc2nc(N)nc(Nc3ccccc3C)n2)CC1 | -0.106
63 | Cc1ccc(C=Nc2ccccc2C(N)=O)cc1 | 0.0748
64 | CSCCC(NC(=O)c1ccc([N+](=O)[O-])cc1Cl)C(=O)OCC(=O)NCC(F)(F)F (stereo not given) | -0.211
65 | COc1cc(CNCc2ccc(SC)cc2)cc(OC)c1 | -0.731
66 | O=C(NCc1ccccc1)NC1(C(=O)N2CCN3CCCC3C2)CCCCC1 (stereo not given) | 0.0888

Row | SMILES | z-score
67 | Cc1ccc(-c2nnn(CC(=O)NCc3ccccc3)n2)c(-n2cnnn2)c1 | -0.255
68 | CCOC(=O)/C=C/C(=O)OCC(=O)NCc1ccccc1 | 0.0436
69 | COc1cc(OC)c(C2C(C#N)=C(N)OC3=C2C(=O)CC(C)(C)C3)cc1OC (stereo not given) | 0.399
70 | CS(=O)(=O)c1ccc(-c2nn[nH]n2)cc1 | -0.0726
71 | COC(=O)c1sc2ccccc2c1C(=O)OC | 0.376
72 | COC(=O)c1nc2ccc(C)cn2c1F | -0.388
73 | O=C(NCCO)/C(=C\c1cccc([N+](=O)[O-])c1)NC(=O)c1ccco1 | -0.0478
74 | COc1cc2c(cc1OC)C1(Nc3c-2c(-c2ccccc2)nn3-c2ccccc2)C(=O)Nc2ccccc21 (stereo not given) | -0.363
75 | Cc1ccccc1-c1noc(C2CCCCC2)n1 | -0.218
76 | O=C(NCCSc1c[nH]c2ccccc12)C1CC1 | -0.0941
77 | CCSCCOC(=O)C1=C(C)NC2=C(C(=O)CCC2)C1c1coc2ccccc2c1=O (stereo not given) | 0.842
78 | CCOC(=O)C1=C(O)/C(=C\c2ccc(CNC(=O)C(=O)Nc3ccc(C)c(C)c3)o2)N=C1C | -1.03
79 | CCc1ccc(OCC2c3cc(OC)c(OC)cc3CCN2C(=S)NCCOC)cc1 (stereo not given) | -0.104
80 | COc1ccc(NC(=O)c2[nH]c(C)c(C(C)=O)c2C)cc1S(=O)(=O)N1CCOCC1 | -0.17
81 | CC(C)(C)NS(=O)(=O)c1ccc(CCC(=O)Nc2ccc3c(c2)OCO3)cc1 | 0.396
82 | Cn1c(SC/C=C/c2ccccc2)nnc1-c1ccco1 | -0.135
83 | CCc1ccccc1NC(=O)CN(C)C(=O)CSc1nnc(Nc2ccc(C)cc2)s1 | 0.0529
84 | CCOC(=O)N1CCC(N(CCN(C)C)C(=S)Nc2cc(C)cc(C)c2)CC1 | 0.161
85 | O=C(Nc1c(Cl)cc(Cl)cc1C(=O)NCCN1CCOCC1)c1ccc(Cl)cc1Cl | -1.39
86 | CC(=O)Nc1ccc(N(C(=O)Cc2c[nH]c3ccccc23)C(C(=O)NC2CCCCC2)c2ccco2)cc1 (stereo not given) | 1.17
87 | CCOc1ccc(NC(=O)N2CCC(NC(=O)c3ccco3)CC2)cc1 | -0.0343
88 | COc1ccc(NC(=O)C(=O)N2N=C(C(C)C)CC2(O)C(F)(F)F)cc1 (stereo not given) | 0.0277

Row | SMILES | z-score
89 | CCC(C)NC(=S)Nc1ccccc1OC (stereo not given) | -0.149
90 | CCOC(=O)c1c(NS(=O)(=O)c2ccc(Br)cc2)sc2c1CCC2 | active: 16.1
91 | CC(Nc1cccc2ccccc12)C(=O)N/N=C/c1ccccn1 (stereo not given) | 0.235
92 | C/C(=N\NC(=S)NCCc1ccccc1)c1ccc(Cl)cc1 | 1.16
93 | CN(C)c1ccnc2sc(C(N)=O)c(N)c12 | -0.124
94 | O=C(Nc1nccs1)C1CCN(S(=O)(=O)c2cccnc2)CC1 | -0.505
95 | O=C(Cc1cccs1)NNC(=S)NC(=O)c1ccc(F)c(F)c1 | 0.74
96 | Cc1ccc(C(NC(=O)NCCCN2CCOCC2)=C(Cl)Cl)cc1F | -0.542
97 | Cc1ccc(S(=O)(=O)N2CCCCC2)cc1NC(=O)COC(=O)Cc1ccc(Cl)cc1 | -0.0868
98 | C/C(CC(=O)Nc1ccc(F)cc1)=N\NC(=O)Cc1csc(N)n1 | -0.15
99 | Cc1ccc(NC(=O)CSc2nnc(Cn3cnc4ccccc43)o2)c(C)c1 | -0.147
100 | Cc1cc(C)nc(SCC2COc3ccccc3O2)n1 (stereo not given) | -0.0671
101 | COc1ccc(S(=O)(=O)NCC(=O)O)cc1C(=O)NC1CCCCC1 | 0.369
102 | CCn1c(SCC(=O)N/N=C/c2cccs2)nc2ccccc21 | 0.0232
103 | CCCCC(CC)C(=O)Nc1ccc(Cl)cn1 (stereo not given) | -0.112
104 | CCOC(=O)c1sc(NC(=O)Cn2nnc3sc4c(c3c2=O)CCCC4)nc1C | 0.0248
105 | Cc1ncsc1CCSc1nc2ccccc2c(=O)n1C | -0.57
106 | CCOc1ccccc1NC(=O)c1cccc(NC(=O)c2ccco2)c1 | -0.729
107 | Cc1ccc(NC(=O)CNc2ccc(Cl)c(Cl)c2)cc1S(=O)(=O)N(C)C | 0.188
108 | CCCc1n[nH]c2c1/C(=N/O)CC(c1ccccc1)C2 (stereo not given) | 0.307
109 | CCNC(=S)NNC(=O)c1cccs1 | -0.146
110 | O=C(CSc1ncn(-c2ccccc2)n1)N1CCc2ccccc21 | 0.287
